Reference: PubChem BioAssay AID485281 (National Center for Advancing Translational Sciences (NCATS), 2010)
Hit rate of the full screen: of about 350,000 compounds, about 260 (0.074%) were called active. Inconclusive results, whose numbers are uncertain, are shown with a selection of clear calls. Calls follow the shape of the dose curve; as a rule, active = well fitted inhibition curve with a large enough effect; inconclusive = small, poorly fitted or top-dose-only effect; inactive = no such curve, though single readings can be large or run the other way. Where the call is inconclusive, the potency comes from a doubtful curve fit.

These molecules were tested against Ferritin light chain (Equus caballus) (UniProt P02791) (assay: qHTS Assay for Identification of Novel General Anesthetics). Details: apoferritin/1-aminoanthracene competitive binding, fluorescence; activity change, negative = displacement: at 77.5 µM (top of the series).
UniProt P02791, sequence (P02791 whole entry, looked up): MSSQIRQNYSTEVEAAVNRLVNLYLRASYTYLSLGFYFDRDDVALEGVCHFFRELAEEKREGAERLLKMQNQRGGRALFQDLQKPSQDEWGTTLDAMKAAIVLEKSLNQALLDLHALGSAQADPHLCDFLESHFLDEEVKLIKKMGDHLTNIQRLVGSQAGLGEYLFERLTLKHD
How it was run: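 Concentration-response curves derived by four-parameter Hill fitting of normalized fluorescence, where compounds displaced 1-AMA from 10 uM horse apoferritin following a brief 10 min room-temperature incubation; propofol titration acted as positive control.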
% is scaled to controls: 0 for no effect and ±100 for the full control effect; potency is read from the fitted curve at half-maximal effect; tags tell the direction and shape of the fitted curve.
Also: nearly all actives have a fitted effect of over 20% in size.

| SMILES | Potency | activity change, negative = displacement |
| --- | --- | --- |
| O=C(Nc1cccc2c1CCCC2)c1ccco1 | inconclusive: 31.6 µM [inhibitor, partial curve] | – |
| COc1ccc(C(=O)C2CCCCC2=O)cc1 (centres undefined) | inconclusive: 35.5 µM [inhibitor, partial curve] | – |
| Cc1cc(N)n2ncc(-c3cccc(Br)c3)c2n1 | inconclusive: 31.6 µM [inhibitor, partial curve] | – |
| O=C(Cc1ccccc1)NC1CCN(S(=O)(=O)c2cccc(F)c2)CC1 | – | inactive: -15.3% |
| COc1ccc(C(=O)COC(=O)COc2cc(C)cc(C)c2)cc1 | inconclusive: 12.6 µM [inhibitor, partial curve] | – |
| CCC(CC)C(=O)Nc1nc2c(s1)CC(C)CC2 (centres undefined) | inconclusive: 3.55 µM [inhibitor, partial curve, poor fit] | – |
| Cc1oc(-c2ccccc2F)nc1CS(=O)CC(=O)NC1CCCCC1 (centres undefined) | inconclusive: 12.6 µM [inhibitor, partial curve] | – |
| N#C/C(=C/c1cn(-c2ccccc2)nc1-c1cccc(OCc2ccc(F)cc2)c1)C(=O)NCCCn1ccnc1 | inconclusive: 50.1 µM [inhibitor, single point] | – |
| CCOC(=O)C(=O)Nc1ccc(OCc2ccccc2)cc1 | inconclusive: 10 µM [inhibitor, partial curve] | – |
| COc1ccc(OCC(=O)c2c[nH]c3ccccc23)cc1 | – | inactive: -10.9% |
| COc1ccc([C@]23Cc4ccccc4C(O2)C2=C(O3)C(=O)c3ccccc3C2=O)cc1 | inconclusive: 2.82 µM [inhibitor, partial curve] | – |
| CC(=O)Nc1cnn(Cc2ccc(Br)cc2)c1 | – | inactive: 7.73% |
| O=C(Nc1ccc2c(c1)OCO2)N1CCN(c2ncc(C(F)(F)F)cc2Cl)CC1 | inconclusive: 35.5 µM [inhibitor, partial curve] | – |
| CCn1ccc2c(OCC(=O)Nc3ccccc3C)cccc2c1=O | inconclusive: 11.2 µM [inhibitor, single point] | – |
| CCN(CC(=O)NCc1ccc(F)cc1)C(=O)/C=C/c1ccc(OC)c(S(=O)(=O)NC(C)C)c1 | – | inactive: -10.5% |
| CCC(=O)N(Cc1ccco1)c1nc(-c2ccc(OC)cc2)cs1 | – | inactive: -2.4% |
| Cc1nc(C)c(-c2csc(Nc3ccc(C(=O)O)c(O)c3)n2)s1 | – | inactive: 1.99% |
| CCC(C)(C)C(=O)Nc1cccc(Cl)c1C | inconclusive: 28.2 µM [inhibitor, partial curve] | – |
| O=C(CC1(O)C(=O)N(Cc2ccccc2)c2ccccc21)c1ccc2c(c1)OCO2 (centres undefined) | inconclusive: 25.1 µM [inhibitor, partial curve] | – |
| CCc1ccc(NC(=O)Cn2c(=O)n(Cc3ccco3)c(=O)c3cccnc32)cc1 | – | inactive: 56.6% |
| Clc1ccc(C2=Nn3c(nnc3-c3cc(-c4ccccc4)n[nH]3)SC2)cc1 | – | inactive: 1.77% |
| CCOC(=O)CN1C(=O)S/C(=C\c2ccc3c(c2)OCO3)C1=O | inconclusive: 22.4 µM [inhibitor, single point] | – |
| COc1ccc(N(C(=O)c2cccnc2)S(=O)(=O)c2ccc(Cl)cc2)cc1 | inconclusive: 17.8 µM [inhibitor, partial curve] | – |

| SMILES | Potency | activity change, negative = displacement |
| --- | --- | --- |
| COc1ccc(-c2csc(NCc3ccco3)n2)cc1 | inconclusive: 35.5 µM [inhibitor, partial curve] | – |
| Cc1ccc(C2c3[nH]c4ccccc4c3CCN2C(=O)CCC2CCCC2)cc1 (centres undefined) | – | inactive: 26.9% |
| Cc1cc(N)nc(SCC(=O)N2C(C)CCCC2C)n1 (centres undefined) | inconclusive: 31.6 µM [inhibitor, single point] | – |
| Cc1ccc(N/N=C/c2ccc(N3CCOCC3)cc2)cc1C | inconclusive: 25.1 µM [inhibitor, partial curve] | – |
| Cc1nc(-c2ccccn2)sc1C(=O)Nc1ccc(Cl)c(Cl)c1 | inconclusive: 20 µM [inhibitor, partial curve] | – |
| O=C(c1ccc(CSc2nc3ccncc3n2Cc2ccccc2)cc1)N1CCCCCC1 | inconclusive: 50.1 µM [inhibitor, single point] | – |
| Clc1ccccc1-c1nccc(-n2ccnc2)n1 | – | inactive: -10.2% |
| CC(NC(=O)COC(=O)C1=COCCO1)C12CC3CC(CC(C3)C1)C2 (centres undefined) | inconclusive: 44.7 µM [inhibitor, single point] | – |
| CCN(CC)C(=O)c1sc(NC(=O)Cc2ccc(OC)cc2)c(C#N)c1C | inconclusive: 39.8 µM [inhibitor, single point] | – |
| CC(=O)NC(CC(=O)Nc1cccc(S(=O)(=O)N2CCCCC2)c1)c1ccccc1 (centres undefined) | inconclusive: 28.2 µM [inhibitor, partial curve] | – |
| CCCCn1c(O)c(/C=C/C=C/C=Nc2ccccc2)sc1=S | inconclusive: 20 µM [inhibitor, partial curve] | – |
| CC(=O)Nc1ncc(Cc2cc(Cl)ccc2Cl)s1 | inconclusive: 14.1 µM [inhibitor, partial curve] | – |
| CCc1ccc(CNCc2c(C(=O)O)n(Cc3ccc(F)cc3Cl)c3cc(OC)ccc23)cc1 | inconclusive: 3.98 µM [inhibitor, full curve] | – |
| Nc1nc2c(s1)COc1ccccc1-2 | – | inactive: -13.3% |
| COc1cc2ccccc2cc1C(=O)N1CCN(c2nc3ccc(F)cc3s2)CC1 | – | inactive: -8.95% |
| Fc1cccc(Cl)c1/C=N/Nc1ccccn1 | – | inactive: -6.41% |
| CCN(CC)S(=O)(=O)c1ccc(NC2c3ccccc3C(=O)N2Cc2ccco2)cc1 (centres undefined) | inconclusive: 17.8 µM [inhibitor, partial curve] | – |
| O=C(Nc1cccc(C(F)(F)F)c1)c1ccc2nc(N3C(=O)CCC3=O)sc2c1 | inconclusive: 35.5 µM [inhibitor, single point] | – |
| CCOc1ncccc1C(=O)NNC(=O)c1cccc(S(=O)(=O)Nc2ccc(OC)cc2)c1 | inconclusive: 22.4 µM [inhibitor, partial curve] | – |
| CC(C(Sc1ccccc1N)c1ccccc1)[N+](=O)[O-] (centres undefined) | inconclusive: 50.1 µM [inhibitor, single point] | – |
| COc1ccc2ncc3c(-c4ccc(C)c(C)c4)nn(CC(=O)NC4CCCC4)c3c2c1 | – | inactive: -5.23% |
| CCOc1ccc(C(=O)O/N=C(\N)c2ccccn2)cc1 | – | inactive: -5.58% |
| Cc1ccccc1NC(=O)CCC(=O)N/N=C/c1c[nH]c2ccccc12 | inconclusive: 7.94 µM [inhibitor, partial curve] | – |

| SMILES | Potency | activity change, negative = displacement |
| --- | --- | --- |
| CCOC(=O)c1ccc(N2C(=O)C3C(C2=O)C(C(=O)c2ccc(Cl)cc2)N2CCCC32)cc1 (centres undefined) | inconclusive: 28.2 µM [inhibitor, partial curve] | – |
| COc1cc(/C=C(\C#N)C(=O)Nc2cccc(C(=O)O)c2)ccc1OCc1ccc(F)cc1 | – | inactive: -14.4% |
| COc1cccc(C2CC(c3ccccc3Cl)n3nc(N)nc3N2)c1 (centres undefined) | – | inactive: -14.4% |
| COC(=O)c1ccc(NC(C(=O)OC)C(C)C)c([N+](=O)[O-])c1 (centres undefined) | inconclusive: 35.5 µM [inhibitor, partial curve] | – |
| COc1cc(/C=C(\C#N)C(N)=O)cc(CSc2nc3ccccc3s2)c1O | inconclusive: 15.8 µM [inhibitor, partial curve] | – |
| Cn1cc(CNC(=O)C23CC4CC(CC(C4)C2)C3)cn1 | inconclusive: 39.8 µM [inhibitor, single point] | – |
| CN(C(=O)CCc1nc(-c2ccccc2F)no1)c1ccccc1 | – | inactive: -5.33% |
| O=S1(=O)C=C(Sc2nnc(-c3ccccc3)o2)c2ccccc21 | inconclusive: 28.2 µM [inhibitor, partial curve] | – |
| CC(C)(C)c1ccc(C(=O)NCC(=O)OCC(=O)Nc2ccccc2[N+](=O)[O-])cc1 | inconclusive: 17.8 µM [inhibitor, single point] | – |
| CC(=O)Cc1nsc(NC(=O)c2ccc(COc3ccc(C)cc3)o2)n1 | inconclusive: 35.5 µM [inhibitor, partial curve] | – |
| CCCCc1cc(=O)oc2cc(OCC(=O)N(CC)CC)ccc12 | inconclusive: 25.1 µM [inhibitor, partial curve] | – |
| O=C(CC1C(=O)NCCN1Cc1ccccc1F)NC1CCCCCC1 (centres undefined) | inconclusive: 39.8 µM [inhibitor, partial curve] | – |
| COc1ccccc1OCc1ccc(C(=O)NN)cc1 | inconclusive: 50.1 µM [inhibitor, single point] | – |
| COc1ccccc1-c1noc(-c2ccc(NC(C)C)c([N+](=O)[O-])c2)n1 | – | inactive: 0.234% |
| CC(NC(=O)c1ccccc1O)c1ccccc1 (centres undefined) | inconclusive: 28.2 µM [inhibitor, partial curve] | – |
| COC(=O)C1=C(C(=O)OC)SC2(S1)C(C(=O)OC)=C(C(=O)OC)SC1=C2c2cc(C)cc(C)c2NC1(C)C | inconclusive: 10 µM [inhibitor, partial curve] | – |
| CCCCNS(=O)(=O)c1ccc(OC)c(C)c1 | inconclusive: 56.2 µM [inhibitor, single point] | – |
| COC(=O)c1c(N2C(=O)[C@H]3[C@@H](C2=O)[C@]2(C(=O)Nc4c(C)cc(C)cc42)N2CCC[C@@H]32)sc(C)c1C | inconclusive: 14.1 µM [inhibitor, partial curve] | – |
| CC(=O)Nc1ccc(NC(=O)CC23CC4CC(CC(C4)C2)C3)cc1 | inconclusive: 28.2 µM [inhibitor, partial curve] | – |
| c1ccc2c3c(cc(N4CCOCC4)c2c1)OC1(N2CCOCC2)CCCCC1O3 (centres undefined) | – | inactive: -15.6% |
| O=S(=O)(c1cccc2nsnc12)N1CCN(C/C=C/c2ccccc2)CC1 | inconclusive: 39.8 µM [inhibitor, partial curve] | – |
| CCOC(=O)c1cccc(NC(=O)CNC(=O)C2CCCCC2)c1 | inconclusive: 44.7 µM [inhibitor, partial curve] | – |
| O=C(CCC(=O)Nc1ccccc1)N/N=C/c1ccc2c(c1)OCO2 | inconclusive: 12.6 µM [inhibitor, partial curve] | – |
